PMC4336329 (PLoS ONE, 2015)
In all, about 310,000 compounds went through this assay and about 2,200 (0.71%) showed an effect of 50% or more. The effect is printed as a negative number. Some of the results follow.

biological target: human ether-à-go-go-related gene (hERG) potassium channel (human, UniProt Q12809); assay: primary screen, population patch clamp on CHO cells stably expressing hERG
Sequence (Q12809 whole entry, looked up): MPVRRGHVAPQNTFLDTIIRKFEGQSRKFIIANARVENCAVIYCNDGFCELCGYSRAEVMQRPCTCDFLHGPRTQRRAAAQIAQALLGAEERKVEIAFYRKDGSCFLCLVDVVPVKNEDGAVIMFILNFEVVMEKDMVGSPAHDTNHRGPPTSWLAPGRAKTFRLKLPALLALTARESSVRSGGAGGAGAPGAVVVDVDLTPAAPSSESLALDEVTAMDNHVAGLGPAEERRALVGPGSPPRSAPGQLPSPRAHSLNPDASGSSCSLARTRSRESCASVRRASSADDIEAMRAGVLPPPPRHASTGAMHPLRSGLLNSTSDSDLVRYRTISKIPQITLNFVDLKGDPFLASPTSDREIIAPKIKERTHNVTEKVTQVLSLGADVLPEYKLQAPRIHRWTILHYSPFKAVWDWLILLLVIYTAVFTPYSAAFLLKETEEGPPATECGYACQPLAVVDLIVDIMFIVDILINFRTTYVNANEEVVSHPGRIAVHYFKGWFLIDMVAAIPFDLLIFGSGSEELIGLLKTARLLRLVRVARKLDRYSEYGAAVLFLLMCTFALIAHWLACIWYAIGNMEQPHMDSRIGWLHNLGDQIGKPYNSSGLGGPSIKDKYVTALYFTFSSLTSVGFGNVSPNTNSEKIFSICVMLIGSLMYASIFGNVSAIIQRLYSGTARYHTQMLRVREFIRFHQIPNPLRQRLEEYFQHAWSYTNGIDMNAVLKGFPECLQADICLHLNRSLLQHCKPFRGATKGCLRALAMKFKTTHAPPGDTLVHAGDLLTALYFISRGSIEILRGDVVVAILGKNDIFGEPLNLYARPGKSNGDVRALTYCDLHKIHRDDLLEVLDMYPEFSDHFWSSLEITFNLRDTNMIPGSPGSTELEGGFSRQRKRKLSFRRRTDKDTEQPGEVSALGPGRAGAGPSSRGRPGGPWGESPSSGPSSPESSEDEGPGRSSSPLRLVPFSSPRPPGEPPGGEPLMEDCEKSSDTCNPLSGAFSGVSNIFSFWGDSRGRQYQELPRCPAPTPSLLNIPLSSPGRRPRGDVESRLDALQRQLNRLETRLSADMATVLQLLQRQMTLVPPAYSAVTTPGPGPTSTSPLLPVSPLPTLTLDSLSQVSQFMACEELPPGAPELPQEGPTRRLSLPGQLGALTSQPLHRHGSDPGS

Compound | hERG current change (%, negative = inhibition) at 1uM
Cc1ccc(-c2noc(C3CCCN(C(=O)c4ccc(Cl)cc4)C3)n2)o1 (centres unmarked) | -1.55%
COc1ccc(OC)c(N=Cc2c(O)c3ccccc3oc2=O)c1 | 11.2%
CC(C)CSc1ncnc2c1oc1nc3c(cc12)COC(C)(C)C3 | 3.38%
Cc1nnc(SCC(=O)Nc2nccs2)s1 | 17%
O=C(/C=C/c1c(F)cccc1Cl)N1CCOCC1 | 13.8%
CC(=O)Nc1ccc(CC(=O)NCCC(c2ccccc2)c2ccccc2)cc1 | 12.8%
CC(NC(=O)Cn1cc(Br)c([N+](=O)[O-])n1)c1ccccc1 (centres unmarked) | 11%
CC(=O)c1cccc(N(CC(=O)Nc2cc(C)cc(C)c2)S(C)(=O)=O)c1 | 16%
Cc1cc(NC(=O)CCC(=O)N(c2ccc(F)cc2)C2(C(=O)NC3CCCCC3)CCCC2)no1 | 11.4%
O=S(=O)(c1ccc(Cl)cc1)N1c2ccccc2Oc2nc3ccccc3nc21 | 10.4%
CSc1cccc(NC(=O)CCCOc2ccccc2)c1 | 11.5%
O=[N+]([O-])c1ccc2oc(C(O)c3cccc(Cl)c3)cc2c1 (centres unmarked) | 15.8%
CCOc1ncccc1C(=O)Nc1ccc(-c2ccc3nnc(C)n3n2)cc1 | 12.5%
O=C(C1CCN(S(=O)(=O)c2ccc(-n3cnnn3)cc2)CC1)N1CCN(c2ccccc2)CC1 | -16.1%
CC1(C)NC(=O)N(CCOCCOc2ccc3ccccc3c2Br)C1=O | 15.9%
C=CCn1c(-c2cccnc2)n[nH]c1=S | 16.1%
Cc1nc(C)c(-c2ccc(SCc3ccccc3C)nn2)s1 | 12.5%
CN1/C(=C\C=C2C(=O)NC(=O)NC2=O)C(C)(C)c2ccccc21 | 10.7%
CNC(=O)COc1ccc(Nc2nnc(-c3ccc(C)c(S(N)(=O)=O)c3)c3ccccc23)cc1 | 8.95%

Compound | hERG current change (%, negative = inhibition) at 1uM
Cc1cc(C(C#N)c2cccc(Cl)c2)n2ncnc2n1 (centres unmarked) | 11.8%
CC(=O)N1CCN(c2ccc(NC(=S)NC(=O)/C=C/c3ccccc3)cc2)CC1 | 12.5%
C=CCOc1ccc(/C=C/C(=O)OCC(=O)NCCc2ccccc2)cc1 | 13.3%
CCCNC(=O)C1CC(=O)N(c2ccc(OCC(=O)Nc3cccc(C)c3C)cc2)C1 (centres unmarked) | 11%
CC(=O)Nc1cc(C(=O)N2CCN(C)CC2)ccc1S(=O)(=O)c1ccc(C)cc1 | 3.13%
C=CCn1c(SCc2cccc(C#N)c2)nnc1-c1ccccc1O | -6.97%
CN(CC(=O)NC1CC(C)(C)NC(C)(C)C1)S(=O)(=O)c1cc(Cl)ccc1Cl | 7%
O=C(NCc1ccccc1F)C(=O)NCC1CCCN1S(=O)(=O)c1ccccc1 (centres unmarked) | 0.406%
CC1CN(CC(O)COCc2ccc3c(c2)OCO3)CC(C)O1.Cl (centres unmarked) | 0.791%
Cc1cc(/C(N)=N/OC(=O)Nc2ccc(Cl)cc2)no1 | 10.7%
CC(C)Oc1ccc(CNC(=O)c2ccc3nc(N4CCOCC4)sc3c2)cc1 | 7.18%
CCOCN(C(=O)Cn1c(CO)nc2ccccc21)c1c(C)cccc1CC | 7.43%
CCOC(=O)/C(C#N)=C(/C)c1ccc(OC)cc1 | 3.37%
CC(=O)NNC(=O)c1ccncc1 | 3.03%
CC(CN1CCCCC1)C(=O)NN (centres unmarked) | 25.4%
CCCC/C([O-])=N\S(=O)(=O)c1ccc(N=NN(C)C)cc1.[K+] | 3.2%
Cc1ccccc1N1C(=O)CC(N2CCC(C(N)=O)CC2)C1=O (centres unmarked) | 5.5%
COc1ccc(OC)c(S(=O)(=O)Nc2ccc3oc4c(c3c2)C(=O)CCC4)c1 | -4.31%
Cc1ccc(C(=O)CSc2nsc(C)c2C#N)cc1 | 2.63%

Compound | hERG current change (%, negative = inhibition) at 1uM
Cn1ncc(Br)c1C(=O)Nc1ccc(Br)cn1 | 16.3%
COc1ccc(OCC(=O)Nc2nnc(-c3ccco3)s2)cc1 | 12.6%
Cc1cc(C)cc(NC(=O)CSc2nc(=O)n(CCCN3CCOCC3)c3c2CCCC3)c1 | -7.23%
O=C(O)c1ccc(-c2nc3scc(-c4ccccc4)c3c(=O)[nH]2)cc1 | 0.113%
O=C(CNCc1ccccc1)Nc1ccc(Oc2ccccc2)cc1 | 5.29%
Cc1cc(C)cc(C(=O)NC(=S)Nc2ccc(Cc3ccncc3)cc2)c1 | 6.73%
Cc1onc(-c2ccccc2)c1C(=O)Nc1nc2c(s1)C(=O)CC(C)(C)C2 | 13.3%
O=C(N/N=C\c1ccc2c(c1)OCO2)c1ccc(Cn2cc(Br)c([N+](=O)[O-])n2)o1 | 3.84%
CCOc1ccc2nc(SCC(=O)NCC3CCCO3)c(C#N)cc2c1 (centres unmarked) | -0.201%
N#CC(C(=S)Nc1ccccc1)c1nc2ccccc2[nH]1 (centres unmarked) | 10.8%
N/C(=N\c1nc2ccccc2o1)NC(=O)C(Cc1ccccc1)N1C(=O)c2ccccc2C1=O (centres unmarked) | 16%
Cc1ccc(/C=C/C(=O)N2CCN(S(=O)(=O)/C=C/c3ccccc3)CC2)o1 | -0.528%
Cc1cccc2sc(N(CCCN(C)C)C(=O)c3ccco3)nc12.Cl | -54.8%
Cn1c(N2CCN(C(=O)Nc3ccc(C(F)(F)F)cc3)CC2)nc2ccccc21 | -7.21%
COc1ccc2c(c1OC)CN1CCc3cc4c(cc3C1C2)OCO4 (centres unmarked) | 17.1%
Cc1c(C(=O)Nc2ccc(F)cc2)oc2ccc(S(=O)(=O)N3CC(C)CC(C)C3)cc12 (centres unmarked) | 15.1%
CCc1ccc(NC(=O)COc2ccc(/C=C(/C#N)c3nc4ccccc4[nH]3)cc2OC)cc1 | 8.14%
CCOc1cc(CN2CCCC(CO)(Cc3ccc(F)cc3F)C2)ccc1OC (centres unmarked) | -10.8%
